# In PMC12136788:
# The other results are listed elsewhere or left out.
# B1: chr7:158693335:158693439:-|CDS|ENSG00000146918|unk|total|mutant (ssRNA)
# RNA: GGGAGUUCUACAGUCCGACGAUCAAGGAAACAGAAAGAAGAAUUAUGGCAAAGGCUGAAGAAUUUAUUGACAGAUGUGUUGUCCGAAAGCCCAGUGGAUGGGUGGCAGGCCGUGGAAGCCCAGGGUGAAGACAAUAUGGAAACCAACAGAGGAUUGAGCAUCA
# B2: chr1:205620050:205620151:-|CDS|ENSG00000158711|unk|total|mutant (ssRNA)
# RNA: GGGAGUUCUACAGUCCGACGAUCGCCAAUGGAACUUCCAGAGAAUUUGUCACUGGAGCCUAAAGACCAGGAUUCAGUCUUGCCCGAAAAGGACAAAGUAAAUAAUUCAUCAAGAUCCAAGAAACCCAAAGGGUCCGAACUGGCCAACAGAGGAUUGAGCAUCA
# B3: chr20:32237940:32238012:+|3pUTR|ENSG00000101346|msi1_unk|total|mutant (ssRNA)
# RNA: GGGAGUUCUACAGUCCGACGAUCUUUCAAAGAUACAAAUAUUUACACCGUUUUAAUCAUGUAAUAUAUACAAUUUAAUGUCCCCGUGUUUUACUUAACCGUGUAUCAUGUUUUCCCUGUUGGUAUGCCGCCUGGAUAAAUGCUCAACAGAGGAUUGAGCAUCA
# B4: chr8:43200960:43201061:+|3pUTR|ENSG00000165102|unk|total|mutant (ssRNA)
# RNA: GGGAGUUCUACAGUCCGACGAUCCAAAUUCUAAGUGUUUUCUCUUCCGGUUUCCCUGGCUUUGUGAAUGGAUCAUGUGUCUCCCGGUAUAAACCUGACAUCAUCUUUCCACCCGGCUUACCUCCACCAGAUCUCCCCAGUUCUCAACAGAGGAUUGAGCAUCA
# B5: ENSG00000070961:be:win_2251|CDS|ENSG00000070961|bound_else_gene|NA|bound_elsewhere_windowed (ssRNA)
# RNA: GGGAGUUCUACAGUCCGACGAUCGAGCAAGAGAGGAUAGACAAGAUUUGGCCAAAACUUCGAGUACUUGCAAGAUCAUCUCCUACUGAUAAGCAUACACUGGUUAAAGGUAUAAUUGACAGCACUGUCUCAGACCAACGCCAGCAACAGAGGAUUGAGCAUCA
# B6: chrX:18604022:18604123:+|CDS|ENSG00000008086|msi1|total|mutant (ssRNA)
# RNA: GGGAGUUCUACAGUCCGACGAUCGACGAAGGUCUCCCUGCCAAUGAAAGCUUCCUAAAUGGAAACCUUGCUGGAGCCCGUCUCCGUCCACUGCACACCAAAACCUACCAAGCAAGCAGCCAGCCUGGGUCUACCAGCAAAGAUCAACAGAGGAUUGAGCAUCA
# B7: chr11:69651696:69651723:+|3pUTR|ENSG00000110092|msi1_unk|total|mutant (ssRNA)
# RNA: GGGAGUUCUACAGUCCGACGAUCGAGGAUCCGGUUCCAUCCUUUACGUGUUUAAAAAAAAGCAUAAAAACAUUUUAAAAACACCGAAAAAUUCAGCAAACCAUUUUUAAAGCCGAAGAGGGUUUCCGGCCGAAAAACAUAUUCCAACAGAGGAUUGAGCAUCA
# B8: chr20:37241422:37241523:+|3pUTR|ENSG00000118705|msi1_unk|total|mutant (ssRNA)
# RNA: GGGAGUUCUACAGUCCGACGAUCGUAUGAGAAGAAAAAUGGAAAAAAAAAACUUUAUUUAAAAAAGAAAAAAGUCCAGAUUGCCGUUAUACUUUUGCUUGUUUUUCAGUUUCCCCAACACACAGCAGAUACCUGGUGAGCUCACAACAGAGGAUUGAGCAUCA
# B9: chr10:104140841:104141001:-|CDS|ENSG00000197748|control|control|control (ssRNA)
# RNA: GGGAGUUCUACAGUCCGACGAUCGAAUUUGACAAUCCAAAUUCUUCUUAAACAAGGACAAGUAGAACUGGAAAAUUUCCAGCUAGUACUGGAGUAUUCUGAUGCAAUUCUCAUCAACAAGAACAUAAUUGAAGACUUGAAUUCCAACAGAGGAUUGAGCAUCA
# B10: chr4:168926953:168927063:+|3pUTR|ENSG00000129116|msi1_unk|total|mutant (ssRNA)
# RNA: GGGAGUUCUACAGUCCGACGAUCCAAAAGAGUUUUCUAACAAGGUUAAUACCUCCGUUCUUAACAUUUUUUUUCUUUAUGUGCCGUGUUUUCAUGCUACCUUGGCCGGAAACUUAUUUACAAACCAUAUUAAAAGGCUAAUUUCAACAGAGGAUUGAGCAUCA
# B11: chr11:14877439:14878297:-|three_prime_utr|ENSG00000186104|control|control|control (ssRNA)
# RNA: GGGAGUUCUACAGUCCGACGAUCAAUGUUCUUGUUUUUUACAGCAUUGCUUCAGAGGUUUCAUUUGCAUUUUCCACAUGAACUAGUUCCAGAUCUGAAGCCCAGGUUAGGCAUGACAUUGCAGCCCCAACCCUACCUCAUCUGCAACAGAGGAUUGAGCAUCA
# B12: chr3:129431351:129431457:-|3pUTR|ENSG00000129071|unk|total|mutant (ssRNA)
# RNA: GGGAGUUCUACAGUCCGACGAUCACUUCAAAAAAGCUUAAUUAAGUACAACCAACCACCUUUCCAGCCACCGAGAUUUUAAUCCGCCCAACCCGAAGCCCCGUGUGUGUGCUUUCUUAAUGUGUGUGCCAAUGGUGGAUCUUUCAACAGAGGAUUGAGCAUCA
# B13: chr12:48145849:48145950:+|3pUTR|ENSG00000152556|msi1|FALSE|unique (ssRNA)
# RNA: GGGAGUUCUACAGUCCGACGAUCCAUGACCAGUUCUGGCCAGGAGCUGGAGGAGCAGGCAGUGGGUGGGAGCUCCUUUUAGGUAGAAUUUAACAUGACUUCUGCCCCAGCUUUAUCUGUCACACAAGGCUGGGCACCUCUAGUCAACAGAGGAUUGAGCAUCA
# B14: chr10:74118697:74119064:+|3pUTR|ENSG00000035403|msi1|FALSE|unique (ssRNA)
# RNA: GGGAGUUCUACAGUCCGACGAUCGAAGAAAUCACAGAAUCAUAUGAUUCUGCUUUUACCAUGCCCCUGAGCAAUGUCUGUGCUAGGGAAACUUCCCGUCCCAUAUCCUGCCUCAGCCCGCCAAGGUAGCCAUCCCAUGAACACCAACAGAGGAUUGAGCAUCA
# B15: chr3:127036428:127036535:+|3pUTR|ENSG00000114554|msi1|FALSE|unique (ssRNA)
# RNA: GGGAGUUCUACAGUCCGACGAUCGCGUGUGGCUGGGGCGUGGCCACCACAGAGCACAUGGCUGUGUCUAGGCGCAAGCACUUUAGCAGUAUCUGUUUACAUGCGCAAGGAUCAAGCCGACUACCUGUGCUGUCUACUGGGACACAACAGAGGAUUGAGCAUCA
# B16: chr1:26899991:26900442:-|CDS|ENSG00000198746|control|control|control (ssRNA)
# RNA: GGGAGUUCUACAGUCCGACGAUCUACCUGGUAGUGAGCGGUAUCCCCUCCGUGUUGCGCUCGGCCCAUUUACGGAGCUAUUUUAGCCAGUUCCGAGAAGAGCGCGGCGGUGGCUUCCUCUGUUUCCACUACCGGCAUCGGCCUCAACAGAGGAUUGAGCAUCA
# B17: chr5:115137525:115137627:-|CDS|ENSG00000152503|unk|FALSE|unique (ssRNA)
# RNA: GGGAGUUCUACAGUCCGACGAUCUUUAGCAGAAGAGGCUAUUCUUUGUUUUAUCUUAGUGUAAUGGAGAUACUGUUUUUUCUUAGUGUAAUGGAGAGAGGGCUAAAGAAGAAGCAAUUACACAUUUUGAAAAGCUCUUUGAAGCAACAGAGGAUUGAGCAUCA
# B18: chr2:86144366:86144519:-|CDS|ENSG00000132305|unk|FALSE|unique (ssRNA)
# RNA: GGGAGUUCUACAGUCCGACGAUCAAACACAUUUAAAUUACUGUCAUAUGCUUCCUAUUGCAUUGAGCAUGGUGAUCUGGAGCUAGCAGCAAAGUUUGUCAAUCAGCUGAAGGGGGAAUCCAGACGAGUGGCACAGGACUGGCUCAACAGAGGAUUGAGCAUCA
# B19: chr6:138432586:138432687:-|CDS|ENSG00000135540|unk|FALSE|unique (ssRNA)
# RNA: GGGAGUUCUACAGUCCGACGAUCGGAGCCCUGGGAAUACAAAUCCUCAGGUAAUGGAAGGGCAUCCCCCCUGAAGCCGCAUUUAGCAACUCCUGGCUAUUCCACUCCCACAAGUAACAUGAGCAGCUGCAGUUUGGACCAAACCAACAGAGGAUUGAGCAUCA
# B20: chr8:97851660:97851768:+|3pUTR|ENSG00000104341|msi1_unk|total|mutant (ssRNA)
# RNA: GGGAGUUCUACAGUCCGACGAUCAUUAACUGCCGAAUUCUUCCUGUACGAUUGGGGAUAUAAUGGGCUUCACUAACCUUCCCCCGGCAUUGAAACUUCCCCCAAAUCUGAUGGACCCCGAAGUCUGCUUUUGUACCUGCUGGGCAACAGAGGAUUGAGCAUCA
# B21: chr19:7961171:7961272:-|3pUTR|ENSG00000066044|msi1|FALSE|unique (ssRNA)
# RNA: GGGAGUUCUACAGUCCGACGAUCGGCGGGAUUCCCGCUUCUGAAACUCCCCCUGGAGUCUCACUCCCACACAUGCCCAUAGCUAGCAUUCAACAGAGAACUCUGUCUUAAGCUUCAACUGUGAAAAUGAUGACGGGCUUGUAGCAACAGAGGAUUGAGCAUCA
# B22: chr17:5346795:5346911:+|CDS|ENSG00000029725|unk|total|mutant (ssRNA)
# RNA: GGGAGUUCUACAGUCCGACGAUCAGAACUGAAUCAUUAUCUGGAAGCUGAGAAAUCUUGCCGGACUGAUCCCGAGAUGUAUGCCGCUGUUUUGAAUACUCAGAAAUCUGUUCUACAGGAAGAUGCUGAGAAACUGCGGAAAGACAACAGAGGAUUGAGCAUCA
# Molecular target: MSI1 full-length (mouse, UniProt Q61474 1-362)
# Sequence of UniProt Q61474 (Q61474 whole entry): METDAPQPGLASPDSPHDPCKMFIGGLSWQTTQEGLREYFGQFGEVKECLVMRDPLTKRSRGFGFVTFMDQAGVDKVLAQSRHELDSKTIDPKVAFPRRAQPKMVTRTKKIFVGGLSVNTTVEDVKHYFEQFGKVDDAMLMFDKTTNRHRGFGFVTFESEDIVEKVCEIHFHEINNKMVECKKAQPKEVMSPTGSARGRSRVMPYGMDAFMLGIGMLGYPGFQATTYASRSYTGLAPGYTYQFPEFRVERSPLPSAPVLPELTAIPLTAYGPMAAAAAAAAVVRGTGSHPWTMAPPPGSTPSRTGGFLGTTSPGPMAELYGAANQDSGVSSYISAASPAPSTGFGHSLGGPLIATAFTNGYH
# Experiment: nsRBNS (natural sequence RNA bind-n-seq); RBNS binding buffer (assumed for nsRBNS): 25 mM Tris pH 7.5, 150 mM KCl, 3 mM MgCl2, 0.01% Triton X-100, 500 ug/ml BSA, 20 U/ml SUPERase-In, 4 C; UNK is unkempt and MSI1 is Musashi-1; names of the RNAs are library labels; protein concentration not given here; high values mean tight binding
row,Binder,binding signal
1,B1,0.587 enrichment R
2,B2,0.692 enrichment R
3,B3,1.18 enrichment R
4,B4,0.548 enrichment R
5,B5,0.323 enrichment R
6,B6,0.487 enrichment R
7,B7,0.383 enrichment R
8,B8,0.497 enrichment R
9,B9,0.186 enrichment R
10,B10,0.747 enrichment R
11,B11,0.678 enrichment R
12,B12,0.567 enrichment R
13,B13,2.3 enrichment R
14,B14,0.502 enrichment R
15,B15,0.628 enrichment R
16,B16,0.419 enrichment R
17,B17,2.18 enrichment R
18,B18,0.43 enrichment R
19,B19,0.624 enrichment R
20,B20,0.464 enrichment R
21,B21,0.313 enrichment R
22,B22,0.416 enrichment R
